Results on one substance are retold here after paper PMC9230856.

For assay [1], the target named is T1, human Na+/taurocholate cotransporting polypeptide (NTCP), wild type, FLAG-tagged (human) (UniProt Q14973).
T1 sequence: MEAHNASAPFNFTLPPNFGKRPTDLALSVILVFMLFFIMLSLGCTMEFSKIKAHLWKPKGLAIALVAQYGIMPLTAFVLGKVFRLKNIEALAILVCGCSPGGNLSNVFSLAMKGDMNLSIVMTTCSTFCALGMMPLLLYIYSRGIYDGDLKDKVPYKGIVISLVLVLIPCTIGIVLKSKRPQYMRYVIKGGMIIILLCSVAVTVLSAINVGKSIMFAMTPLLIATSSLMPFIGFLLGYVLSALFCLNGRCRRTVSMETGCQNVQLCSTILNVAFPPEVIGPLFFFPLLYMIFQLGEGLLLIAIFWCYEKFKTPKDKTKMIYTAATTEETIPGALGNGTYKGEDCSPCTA
Nature of the assay: fluorescence microscopy of labelled peptide bound to cells; T-Rex Flp-In HEK293 cell lines stably transfected with NTCP-FLAG wt, Y146A, Y146E or Y146F (tetracycline-inducible); myr-preS1-AX568 peptide; cell-based fluorescence quantified in regions of interest (RFU); only the binder purified.

Assay [2] deals with T2, human NTCP Y146A mutant, FLAG-tagged (human) (UniProt Q14973).
T2 sequence: T1 sequence with Y146A
The assay is described as above.

For assay [3], the target named is human NTCP Y146F mutant, FLAG-tagged (human) (UniProt Q14973). The description is as above.
Assay [4] addresses human NTCP Y146E mutant, FLAG-tagged (human) (UniProt Q14973). Described as above.
Assay [5] deals with T1, human Na+/taurocholate cotransporting polypeptide (NTCP), wild type, FLAG-tagged (human). Kind of assay: fluorescence microscopy of labelled peptide bound to cells; HEK293 cells transiently transfected with NTCP-FLAG wt or mutants; 50 nM myr-preS1-AX568 in DMEM, 30 min (legends: 20 min) at 37 °C, washed, fixed with 2% PFA; cell-based fluorescence quantified in regions of interest (RFU); only the binder purified.

For assay [6], the target named is T2, human NTCP Y146A mutant, FLAG-tagged (human). Described as above.
For assay [7], the target named is human NTCP Y141F mutant, FLAG-tagged (human) (UniProt Q14973). The assay is described as above.
Assay [8] has as its target human NTCP Y146F mutant, FLAG-tagged (human) (UniProt Q14973). The description is as above.
Assay [9] deals with human NTCP Y139A/Y141A/Y146A triple mutant, FLAG-tagged (human) (UniProt Q14973). Described as above.
Assay [10] deals with human NTCP R143A mutant, FLAG-tagged (human) (UniProt Q14973). The description is as above.
In assay [11] the target is human NTCP Y146E mutant, FLAG-tagged (human) (UniProt Q14973). The assay is described as above.
Assay [12] deals with human NTCP Y139A mutant, FLAG-tagged (human) (UniProt Q14973). The assay is described as above.
The target of assay [13] is human NTCP Y141A mutant, FLAG-tagged (human) (UniProt Q14973). Described as above.

Positions count from the first letter of the chain named. These are yes or no findings as the source states them, for the method shown. Some entries that bind do so weakly or less than the wild type. For some of these results: Where a sequence is shown, tags or fusion partners need not be part of it.

Turning to “myr-preS1-AX568 peptide (N-terminally myristoylated, C-terminally Alexa 568-coupled preS1 peptide, amino acids 2-48 of the large HBV surface protein, sub-genotype D3) (from UniProt P03138 2-48)”, the binding result is “binds” in assay [1]; “no binding” in assay [2]; “binds weakly” in assay [3]; “no binding” in assay [4]; “binds” in assay [5]; “no binding (tested: 50 nM)” in assay [6]. The binding entry in assay [7] is listed as “binds”; in [8], “binds weakly”; in assay [9] it was “no binding (tested: 50 nM)”; in [10] it was “binds”; in assay [11], “no binding (tested: 50 nM)”; in assay [12] it was “binds”. The binding entry in assay [13] is “binds”.
